# Assay results taken from the RNAGym collection of RNA variant scans (doi:10.1101/gad.245936.114).
# This sample is rich in variants without activity.
# B1: tRNA (parent)
# chain: CUCUCGGUAGCCAAGUUGGUUUAAGGCGCAAGACUUUAAUUUAUCACUACGAAAUCUUGAGAUCGGGCGUUCGACUCGCCCCCGGGAGAUUUUUUCCUCGAGCAA
# Variants of: B1
# Assay: nonsense suppression (GFP-seq) (ratio to wild type); higher = more function; SUP4oc tRNA, yeast GFP reporter sort-seq
# In short: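 Yeast carrying genome-integrated SUP4oc tRNA variants from a library with ~3% random mutations were grown in raffinose/galactose medium with 80 mg/L adenine. Each strain also carried a galactose-driven GFP ochre reporter and RFP. Cells were sorted into GFP/RFP bins, and each bin was Illumina-sequenced (phred ≥30). Nonsense suppression (GFPSEQ) is the bin median GFP/RFP, weighted by each variant's estimated cell share per bin, relative to wild-type SUP4oc; variants needed ≥100 reads and ≥30 cells.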
row,Variant,nonsense suppression
1,A13U A23G U35G U55C C80G,≤ 0.026
2,A13U A23U,0.0855
3,A13U A24C A30U U55A C80U A87C,≤ 0.026
4,A13U A24G,0.96
5,A13U A24U,0.863
6,A13U A30C,≤ 0.026
7,A13U A30U,0.0763
8,A13U A30U A87U,≤ 0.026
9,A13U A31C,≤ 0.026
10,A13U A31U,0.193
11,A13U A31U A33G,≤ 0.026
12,A13U A33U U63G,≤ 0.026
13,A13U A54G C56A,≤ 0.026
14,A13U A54U U58A G61U,≤ 0.026
15,A13U A60C G67U,≤ 0.026
16,A13U A62C,0.029
17,A13U A62C U71A C79A A87G,≤ 0.026
18,A13U A62G A89U,≤ 0.026
19,A13U A74U C77A C80G,≤ 0.026
20,A13U C27U A60C G78A,≤ 0.026
21,A13U C27U G85A,0.22
22,A13U C29A A62G,≤ 0.026
23,A13U C29G A74G,≤ 0.026
24,A13U C34G,≤ 0.026

row,Variant,nonsense suppression
1,A13U C34G U35A U58G,≤ 0.026
2,A13U C34U C81G,≤ 0.026
3,A13U C64U,0.0285
4,A13U C72U,≤ 0.026
5,A13U C72U C77A,≤ 0.026
6,A13U C75U,1.22
7,A13U C82G,≤ 0.026
8,A13U G15A U20C,≤ 0.026
9,A13U G15A U76A,≤ 0.026
10,A13U G15U G26U,≤ 0.026
11,A13U G18A,≤ 0.026
12,A13U G18C G19U,≤ 0.026
13,A13U G19C U21G A24U C83U G86C,≤ 0.026
14,A13U G19C U21G C27A C34G A62C,≤ 0.026
15,A13U G25C G67A G85U,≤ 0.026
16,A13U G26C,≤ 0.026
17,A13U G26C A31G A33G G67A G85U,≤ 0.026
18,A13U G26C U70C C77A,≤ 0.026
19,A13U G28U A89C,≤ 0.026
20,A13U G28U U58G,≤ 0.026
21,A13U G32A C34U U63C,≤ 0.026
22,A13U G32C C56G C75U,0.912
23,A13U G61C,0.191
24,A13U G65U,0.0575

row,Variant,nonsense suppression
1,A13U G65U G66C C82G,≤ 0.026
2,A13U G66U C68A G73C,≤ 0.026
3,A13U G73U C79G,≤ 0.026
4,A13U G78U,0.236
5,A13U G84C,≤ 0.026
6,A13U G85A,1.2
7,A13U G88C,≤ 0.026
8,A13U U16A G85U,0.173
9,A13U U16C U71C,≤ 0.026
10,A13U U16G,0.819
11,A13U U16G A23U G69U,≤ 0.026
12,A13U U16G A33U,0.0384
13,A13U U16G C82U,0.377
14,A13U U17A G78C,≤ 0.026
15,A13U U21A,0.803
16,A13U U21A A60G,≤ 0.026
17,A13U U21C A24C G66A A89G,≤ 0.026
18,A13U U21G A33G,≤ 0.026
19,A13U U22G A31C A33G,≤ 0.026
20,A13U U35C,≤ 0.026
21,A13U U55A G65C G88U,≤ 0.026
22,A13U U55C C56U G85C,≤ 0.026
23,A13U U55C G59U,≤ 0.026
24,A13U U57C,≤ 0.026

row,Variant,nonsense suppression
1,A13U U71A,≤ 0.026
2,A13U U71C,≤ 0.026
3,A13U U76C G84U G86C,≤ 0.026
4,A14C A23C,≤ 0.026
5,A14C A24C C81A,≤ 0.026
6,A14C A24U G66U,≤ 0.026
7,A14C A30C U35C,≤ 0.026
8,A14C A30C U58G G59A C80G C81A,≤ 0.026
9,A14C A30G C72U,≤ 0.026
10,A14C A30U U63G,≤ 0.026
11,A14C A31C U58C C72A U76C C77G,≤ 0.026
12,A14C A31U A33U,≤ 0.026
13,A14C A33C,≤ 0.026
14,A14C A33C U55A,≤ 0.026
15,A14C A33G U35G G59C G65A,≤ 0.026
16,A14C A33U U35C C80U,≤ 0.026
17,A14C A33U U63G G88U,≤ 0.026
18,A14C A60U C68U,≤ 0.026
19,A14C A62C G67U,≤ 0.026
20,A14C A74C,≤ 0.026
21,A14C C27G G28C,≤ 0.026
22,A14C C27U G66A,≤ 0.026
23,A14C C29G,≤ 0.026
24,A14C C56A G78A,≤ 0.026

row,Variant,nonsense suppression
1,A14C C56U,≤ 0.026
2,A14C C64A,≤ 0.026
3,A14C C68A G73C,≤ 0.026
4,A14C C68U G88A,≤ 0.026
5,A14C C72A,≤ 0.026
6,A14C C75U U76A,≤ 0.026
7,A14C C82U,≤ 0.026
8,A14C G15C C56U C81A,≤ 0.026
9,A14C G15U G18C U57C,≤ 0.026
10,A14C G15U G61U C75A,≤ 0.026
11,A14C G18A C29U,≤ 0.026
12,A14C G18A C34U,≤ 0.026
13,A14C G18U A62G,≤ 0.026
14,A14C G19A C68U,≤ 0.026
15,A14C G19C G78U,≤ 0.026
16,A14C G19C U57C G73U,≤ 0.026
17,A14C G25A A30U,≤ 0.026
18,A14C G25C C34G U58G A62U G78C,≤ 0.026
19,A14C G25U U63C G84U,≤ 0.026
20,A14C G26A G65C,≤ 0.026
21,A14C G26C A62C C82U,≤ 0.026
22,A14C G26C C77G G88A,≤ 0.026
23,A14C G26U C34G G73A,≤ 0.026
24,A14C G28C G67A C81G,≤ 0.026

row,Variant,nonsense suppression
1,A14C G59A,≤ 0.026
2,A14C G59A C72U,≤ 0.026
3,A14C G61A,≤ 0.026
4,A14C G61A C80U,≤ 0.026
5,A14C G61U U63G U71G C81G,≤ 0.026
6,A14C G65A C82G,≤ 0.026
7,A14C G65C C77G,≤ 0.026
8,A14C G66C,≤ 0.026
9,A14C G78A,≤ 0.026
10,A14C G78C,≤ 0.026
11,A14C G84A,≤ 0.026
12,A14C U16C A24U C34U G84A,≤ 0.026
13,A14C U16G A74G,≤ 0.026
14,A14C U16G U55C,≤ 0.026
15,A14C U20A C79A,≤ 0.026
16,A14C U20C G67U,≤ 0.026
17,A14C U20G G86U,≤ 0.026
18,A14C U21G A23C G69A U70A,≤ 0.026
19,A14C U22A A30G,≤ 0.026
20,A14C U22G A23G G67C,≤ 0.026
21,A14C U35G A62G,≤ 0.026
22,A14C U57A U58G,≤ 0.026
23,A14C U58G G59U C82G,≤ 0.026
24,A14C U58G G73C C82A,≤ 0.026

row,Variant,nonsense suppression
1,A14C U76A,≤ 0.026
2,A14C U76G,≤ 0.026
3,A14G A23G A33G A54U U76C C82U,≤ 0.026
4,A14G A23U U76C,≤ 0.026
5,A14G A24C A62U,≤ 0.026
6,A14G A24U G66A G69C G84A,≤ 0.026
7,A14G A24U U58G,≤ 0.026
8,A14G A30G C79A,≤ 0.026
9,A14G A30U,0.0337
10,A14G A30U G65C U70C C72U G85A,≤ 0.026
11,A14G A31G,0.0611
12,A14G A31U,≤ 0.026
13,A14G A33G,≤ 0.026
14,A14G A33G G78C,≤ 0.026
15,A14G A60G,0.0456
16,A14G A60U C77A G88A,≤ 0.026
17,A14G A62C C75A G84C,≤ 0.026
18,A14G A62G C75G,≤ 0.026
19,A14G A74C C77A A87C,≤ 0.026
20,A14G C27A,≤ 0.026
21,A14G C27G,≤ 0.026
22,A14G C29G,≤ 0.026
23,A14G C34A,≤ 0.026
